Laboratory results: PubChem BioAssay AID1476 (National Center for Advancing Translational Sciences (NCATS), 2009)
Screen size: about 200,000 compounds; about 4,500 (2.2%) were called active. The shares of active, inactive and inconclusive entries below differ from those in the screen. The call rests on the fitted dose curve; in most records, active means well fitted inhibition curve with a large enough effect; inconclusive means small, poorly fitted or top-dose-only effect, or effect the other way; inactive means flat fitted curve, though single readings scatter. Where the call is inconclusive, the potency comes from a doubtful curve fit.

These compounds were tested against Cruzipain (Trypanosoma cruzi) (UniProt P25779) (assay: qHTS Assay for Promiscuous and Specific Inhibitors of Cruzain (without detergent)). Settings: purified cruzain, Z-FR-AMC fluorescence, no detergent.
Chain of UniProt P25779 (P25779 whole entry, looked up): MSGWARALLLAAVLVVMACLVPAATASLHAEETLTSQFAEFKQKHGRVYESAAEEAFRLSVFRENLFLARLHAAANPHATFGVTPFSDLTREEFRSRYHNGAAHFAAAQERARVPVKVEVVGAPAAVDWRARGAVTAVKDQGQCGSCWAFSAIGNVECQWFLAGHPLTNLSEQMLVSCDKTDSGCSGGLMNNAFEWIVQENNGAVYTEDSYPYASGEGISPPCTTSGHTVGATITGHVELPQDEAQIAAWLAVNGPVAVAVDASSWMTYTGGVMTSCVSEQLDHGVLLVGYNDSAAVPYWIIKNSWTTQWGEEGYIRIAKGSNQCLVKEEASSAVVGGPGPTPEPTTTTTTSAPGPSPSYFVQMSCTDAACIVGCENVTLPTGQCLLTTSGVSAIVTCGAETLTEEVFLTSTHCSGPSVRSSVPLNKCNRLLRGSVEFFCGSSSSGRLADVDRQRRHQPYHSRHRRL
Procedure, shortened: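 Detergent-free condition (0.00005% Triton X-100) in acetate buffer pH 5.5 with DTT. 1.5 nM enzyme and compound were pre-mixed 15 min, then 2 uM Z-FR-AMC substrate added; reaction progress from fluorescence change between first and third reads (60 s).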
Further: nearly all actives have a fitted effect of over 40% in size.
Potency means the concentration at half of the fitted maximal effect; tags describe the fitted curve by direction and shape.
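Wherever max response, negative = inhibition is given: plate controls were enzyme without inhibitor for no effect and buffer without enzyme for full effect.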

Row | Compound | max response, negative = inhibition | Potency
1 | Cc1ccc(NC(=O)C(=O)c2cc(C)n(-c3ccc(F)cc3)c2C)cc1C | inactive: 0.575% | 
2 | N#CCOc1nc(N2CCCC2)nc(N2CCCC2)n1 | inactive: 3.83% | 
3 | COCCNC(=O)C(c1ccc(C)o1)N(C(=O)c1snc(C(N)=O)c1N)c1ccc(C)c(C)c1 (stereo not drawn) |  | inconclusive: 25.1 µM [activator, single point]
4 | Cn1c(=O)c2c(nc(CN3CCN(c4ccccc4)CC3)n2Cc2ccccc2F)n(C)c1=O |  | inconclusive: 31.6 µM [activator, single point]
5 | O=[N+]([O-])c1cccc(/C=N/Nc2nc(N3CCOCC3)nc(N3CCOCC3)n2)c1 | inactive: -3.34% | 
6 | COC(=O)CC1Oc2cc3oc4c5ccccc5oc(=O)c4c3cc2O1 (stereo not drawn) | inactive: -1.84% | 
7 | CCOC(=O)CNCCC(=O)c1ccc(Br)cc1 |  | active: 10 µM
8 | Cn1c(CCC(=O)OCC(=O)Nc2ccc(Oc3ccccc3)cc2)nc(=O)c2ccccc21 |  | inconclusive: 39.8 µM [activator, single point]
9 | COc1ccc(S(=O)(=O)N2CCOCC2)cc1NC(=O)c1cccc2c(=O)c(C)c(-c3ccccc3)oc12 |  | inconclusive: 25.1 µM [activator, single point]
10 | CC(=O)Nc1ccc(Oc2cc(C#N)c(C#N)cc2N2CCCCCC2)cc1 |  | inconclusive: 39.8 µM [activator, single point]
11 | Cc1cccn2c(=O)c(C(=O)NCCc3ccccc3)c(O)nc12 |  | inconclusive: 39.8 µM [activator, single point]
12 | COc1ccc(-c2nsc(SCC(=O)Nc3ccc4c(c3)OCO4)n2)cc1 |  | inconclusive: 39.8 µM [inhibitor, single point]
13 | COc1ccc(CCNC(=O)C(=O)NCC(c2ccc3c(c2)OCO3)N2CCOCC2)cc1OC (stereo not drawn) | inactive: -5.85% | 
14 | Cc1ccc2nc(CNC(=O)c3ccccc3)[nH]c2c1 | inactive: 6.98% | 
15 | CCOc1cc2c3c(c1)C1(C(=O)N3C(C)(C)C=C2C)C(C#N)=C(N)Oc2cc(O)ccc21 (stereo not drawn) |  | inconclusive: 39.8 µM [activator, single point]
16 | Cc1ccc(-c2c(C)sc(NC(=O)C3C4CCC(O4)C3C(=O)O)c2C(=O)OC(C)C)cc1 (stereo not drawn) |  | inconclusive: 31.6 µM [activator, single point]
17 | COc1ccc2c(c[n+](C)c3c4cc5c(cc4ccc23)OCO5)c1OC |  | inconclusive: 39.8 µM [activator, single point]
18 | Cc1ccc(C2=Nc3ccccc3N(CC(=O)NCc3ccccc3Cl)C(=O)C2)cc1C |  | active: 25.1 µM
19 | CC(=O)c1c(C)[nH]c(C(=O)Nc2nc(-c3ccccc3)c(C)s2)c1C |  | inconclusive: 39.8 µM [activator, single point]
20 | COc1ccc(CNC(=O)/C=C/c2ccc(OCCCF)cc2)cc1OC |  | inconclusive: 39.8 µM [activator, single point]
21 | COc1ccc(C(=O)Nc2cc3c(cc2OC)CCCC3)cc1Br |  | inconclusive: 20 µM [inhibitor, single point]

Row | Compound | max response, negative = inhibition | Potency
22 | C/C(=N\Nc1nc2ccccc2[nH]1)c1cc2ccccc2o1 |  | inconclusive: 31.6 µM [inhibitor, single point]
23 | Cc1ccccc1CCNC(=O)c1cc2cc(S(=O)(=O)N3CCCCC3)ccc2n1C | inactive: -8.82% | 
24 | O=C(CNC(=O)C1CCCCC1)OCc1cc(=O)oc2ccc3ccccc3c12 | inactive: -19.6% | 
25 | CC1=C(C(=O)Nc2ccccc2)C(c2cccs2)C(C#N)=C(SCC#N)N1 (stereo not drawn) |  | inconclusive: 5.01 µM [inhibitor, full curve, poor fit]
26 | COc1ccc(NC(=O)CSc2nc3nc(C)c(Cc4ccccc4Cl)c(C)n3n2)cc1OC |  | inconclusive: 39.8 µM [activator, single point]
27 | O=C(Nc1ccc2nc(SCC(=O)N3CCc4ccccc43)sc2c1)c1cccc(Cl)c1 |  | inconclusive: 3.98 µM [inhibitor, single point]
28 | CCn1c(C(=O)N2CCCC(C(=O)N3CCN(c4cc(C)ccc4C)CC3)C2)cc2sccc21 (stereo not drawn) |  | inconclusive: 25.1 µM [activator, partial curve]
29 | CN(C)S(=O)(=O)c1cccc(NC(=O)c2cc(-c3cccs3)nn2-c2ccccc2)c1 |  | inconclusive: 31.6 µM [inhibitor, single point]
30 | COCCNC(=O)C(c1cccs1)N(C(=O)Cn1nnc2ccccc21)c1cccc(C(C)=O)c1 (stereo not drawn) | inactive: 10.3% | 
31 | CCCCc1ccc(CC2S/C(=C(\C#N)C(=O)N3CCOCC3)N(c3ccccc3)C2=O)cc1 (stereo not drawn) |  | inconclusive: 31.6 µM [activator, single point]
32 | CC(C)(C)C(=O)NC1(C(F)(F)F)C(=O)Nc2c1c(=O)[nH]c(=O)n2-c1ccccc1 (stereo not drawn) | inactive: -1.33% | 
33 | CCOc1ccc(-c2nnc(SCC(=O)NCc3ccccc3)o2)cc1 | inactive: -7.71% | 
34 | COc1ccc(N=C2C(=Nc3ccc(OC)cc3)N(c3ccccc3)C(=S)N2C(=O)c2ccc(Cl)cc2)cc1 |  | active: 3.98 µM
35 | CC(=O)/C(=N/Nc1cccc(Cl)c1)Sc1nnc(C(O)c2ccccc2)n1-c1ccccc1 (stereo not drawn) |  | inconclusive: 39.8 µM [activator, single point]
36 | CC(C)(C)C(=O)OCOP(=O)(OCOC(=O)C(C)(C)C)C(C)(Oc1ccc(O)cc1)P(=O)(OCOC(=O)C(C)(C)C)OCOC(=O)C(C)(C)C |  | inconclusive: 10 µM [activator, partial curve]
37 | CC(=O)OC[C@H]1O[C@@H](Sc2cccc3cccnc23)[C@H](OC(C)=O)[C@@H](OC(C)=O)[C@@H]1OC(C)=O |  | inconclusive: 39.8 µM [activator, single point]
38 | COc1ccc(CCNC(=O)CCc2c(C)c3cc4c(C)coc4c(C)c3oc2=O)cc1OC |  | inconclusive: 5.01 µM [activator, partial curve, poor fit]
39 | CCOC(=O)c1ccc(NC(=O)c2ccc(=O)n(Cc3cccc(C)c3)c2)cc1 |  | inconclusive: 39.8 µM [activator, single point]
40 | COc1ccccc1CNC(=O)C/C(C)=N/NC(=O)COc1ccc(C)cc1Br |  | inconclusive: 39.8 µM [activator, single point]
41 | Fc1cccc(CSc2ncnc3c2ncn3[C@H]2CCCS2)c1 | inactive: -1.53% | 
42 | C=CCn1c(SCC(=O)N2CCCC2)nc2scc(-c3cccs3)c2c1=O | inactive: 1.72% | 

Row | Compound | max response, negative = inhibition | Potency
43 | NC(=O)CSc1nnc(-c2cc3ccccc3o2)n1Cc1ccccc1 |  | inconclusive: 25.1 µM [inhibitor, single point]
44 | CCN(C(=O)Cn1cnc2sc(C)c(S(=O)(=O)N3CCN(c4ncccn4)CC3)c2c1=O)c1ccccc1F |  | inconclusive: 39.8 µM [activator, single point]
45 | COC(=O)c1ccc(Oc2coc3cc(OCc4ccc([N+](=O)[O-])cc4)ccc3c2=O)cc1 |  | active: 10 µM
46 | COc1ccc(Cc2nc3ccccc3n2Cc2ccccc2F)cc1 | inactive: -1.81% | 
47 | NC(=S)N/N=C\c1ccccc1OCc1ccccc1 |  | active: 1.26 µM
48 | COC(=O)[C@@H](NC(=O)O[C@H]1C(=O)c2cc(OC)ccc2O[C@@H]1c1ccc(OC)c(Br)c1)C(C)C |  | inconclusive: 31.6 µM [inhibitor, single point]
49 | Cc1c(C(=O)OCc2nc3scc(-c4ccccc4)c3c(=O)[nH]2)cccc1[N+](=O)[O-] |  | inconclusive: 25.1 µM [inhibitor, single point]
50 | O=C(CN1C(=O)COc2ccc(S(=O)(=O)Nc3ccccc3)cc21)Nc1cccc(Cl)c1 |  | inconclusive: 20 µM [inhibitor, single point]
51 | COc1ccc2occ(CC(=O)Nc3ccc(S(=O)(=O)Nc4nc(C)cc(C)n4)cc3)c2c1 |  | inconclusive: 39.8 µM [activator, single point]
52 | COc1ccc(C2=NCc3nnc(C)n3-c3ccc(Cl)cc32)cc1Cl |  | inconclusive: 39.8 µM [activator, single point]
53 | Oc1ccc(Cl)cc1C1=NCCNC(C(F)(F)C(F)F)=C1 |  | inconclusive: 0.501 µM [inhibitor, full curve]
54 | O=C(Nc1ccc(Br)cc1F)N1CCC2(CC1)Oc1ccccc1C(=O)N2Cc1ccccc1F |  | inconclusive: 15.8 µM [inhibitor, single point]
55 | COc1ccc(N2CCN(c3nc4ccc(C)cc4n4nnnc34)CC2)cc1 | inactive: -8.5% | 
56 | CCOc1ccc2c(c1)NC(c1cccs1)=NC(c1ccc(F)cc1)=N2 |  | inconclusive: 31.6 µM [inhibitor, single point]
57 | CNc1ccc2oc(C[C@H]3O[C@@]4(CC[C@H]3C)O[C@H]([C@H](C)C(=O)c3ccc[nH]3)[C@H](C)C[C@H]4C)nc2c1C(=O)O |  | inconclusive: 39.8 µM [inhibitor, single point]
58 | O=C(Nc1ccccc1)/C(=C/c1ccc([N+](=O)[O-])cc1)NC(=O)c1ccccc1 |  | active: 10 µM
59 | COc1ccc(-c2nnc3c4ccccc4c(C)nn23)cc1 |  | inconclusive: 39.8 µM [activator, single point]
60 | CN(Cc1ccccc1)C(=O)[C@H](Cc1ccc2ccccc2c1)NC(=O)[C@@H]1CCCN1C(=O)Nc1ccccc1[N+](=O)[O-] | inactive: 5.09% | 
61 | CN(C)C(=O)c1ccc2c(c1[N+](=O)[O-])C(=O)c1ccccc1C2=O | inactive: -11.1% | 
62 | N/C(=N\OC(=O)c1cc(-c2ccccc2)nc2ccccc12)c1cccnc1 |  | inconclusive: 39.8 µM [activator, single point]
63 | CCc1c(-c2ccccc2)nc2ccccc2c1C(=O)NCc1ccc(C)cc1 | inactive: 9.39% | 
